Marks after values point to notes of the source that are not given here.
System: S. pneumoniae
Assay: MBC determination (CLSI), MBC/MIC ratio

Row | Structure (SMILES) | No. of strains with MBC/MIC value of: 1 | No. of strains with MBC/MIC value of: 2 | No. of strains with MBC/MIC value of: 4 | No. of strains with MBC/MIC value of: 8 | No. of strains with MBC/MIC value of: 16 | No. of strains with MBC/MIC value of: ≧32
1 | CC[C@H]1OC(=O)[C@H](C)[C@@H](O[C@H]2C[C@@](C)(OC)[C@@H](O)[C@H](C)O2)[C@H](C)[C@@H](O[C@@H]2O[C@H](C)C[C@H](N(C)C)[C@H]2O)[C@](C)(OC)C[C@@H](C)C(=O)[C@H](C)[C@@H](O)[C@]1(C)O [CLR, clarithromycin] | 2 | 3 | 1 | 0 | 0 | 
2 | CC[C@H]1OC(=O)[C@H](C)C(=O)[C@H](C)[C@@H](O[C@@H]2O[C@H](C)C[C@H](N(C)C)[C@H]2O)[C@](C)(OC)C[C@@H](C)C(=O)[C@H](C)[C@H]2N(CCCCn3cnc(-c4cccnc4)c3)C(=O)O[C@]12C [TEL, telithromycin] | 2 | 6^a | 0 | 0 | 0 | 2
